Measured values as given in PubChem BioAssay AID651820 (National Center for Advancing Translational Sciences (NCATS), 2012).
Values joined by “and” are separate entries in the source; they are usually repeats but may differ in a detail not shown here. Equal entries are not always repeated. Hit rate of the full screen: of about 340,000 compounds, about 12,000 (3.5%) were called active. The inconclusive results got no clear call from the source; some entries with a clear call stand among them for comparison. Calls come from the whole dose curve; as a rule, active = well fitted inhibition curve with a large enough effect; inconclusive = small, poorly fitted or top-dose-only effect, or another doubt; inactive = no such curve, though single readings can be large or run the other way. Potencies of inconclusive entries are doubtful fits and often do not repeat.

Experiment: qHTS Assay for Inhibitors of Hepatitis C Virus (HCV)
Details: Huh7.5.1 HCVcc-Cre (HCVcc is cell-culture hepatitis C virus) infection, luciferase reporter, 44 h; activity change, negative = inhibition: at 41.8 µM (top of the series)
Outline: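 Luciferase read-out (15 sec integration) after a 15 min room-temperature substrate step quantifies HCVcc-Cre infection. Cells, 1,000 per well, had compound added 4 h post-plating, then virus at ~0.5 moi, and were cultured 44 h.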
% is set by controls: 0 for no effect and ±100 for the full control effect; potency is the fitted concentration of half-maximal effect; tags give direction and shape of the fitted curve.

Row | Compound | Potency | activity change, negative = inhibition
1 | COc1ccc(N2CCN(C(=O)Cn3nnc(-c4ccccc4N)n3)CC2)cc1 | inconclusive: 22.4 µM [inhibitor, single point] | –
2 | COc1ccc(-c2nn(-c3ccccc3)cc2C(=O)NCC(c2cccs2)N2CCOCC2)cc1 (stereo not given) | inconclusive: 22.4 µM [inhibitor, single point] | –
3 | O=C(CC1CCCC1)Nc1ccc(Cl)c(S(=O)(=O)N2CCOCC2)c1 | active: 11.2 µM | –
4 | Cc1nc(-c2ccncc2)nc(NCCNc2ncccc2C(F)(F)F)c1Cl | inconclusive: 11.2 µM [inhibitor, partial curve] | –
5 | C/C(=N\NC(=O)c1ccc(F)cc1)c1ccccn1 | active: 2.51 µM | –
6 | O=C1SC(SCc2ccccc2)=N/C1=C\c1ccco1 | inconclusive: 2 µM [inhibitor, partial curve] | –
7 | O=C(CCSc1ccc(Br)cc1)Nc1cccnc1 | inconclusive: 31.6 µM [inhibitor, single point] | –
8 | C[C@@H]1CN([C@@H](C)CO)C(=O)c2cc(NC(=O)C3CC3)ccc2O[C@@H]1CN(C)Cc1ccc(Cl)c(Cl)c1 | inconclusive: 0.501 µM [inhibitor, full curve] | –
9 | C#CCSc1nsc(SCC#C)c1C#N | active: 11.2 µM | –
10 | CC(=O)Nc1cccc(-c2csc(Nc3cccc(C)n3)n2)c1 | inconclusive: 10 µM [inhibitor, partial curve] | –
11 | O=C(NNC(=O)c1ccccc1OCc1ccccc1)c1ccccc1O | inconclusive: 10 µM [inhibitor, partial curve] | –
12 | Cn1ncc2c(NNC(=O)c3ccc(Cl)cc3Cl)ncnc21 | inconclusive: 0.891 µM [inhibitor, full curve, poor fit] | –
13 | Fc1ccccc1N1CCN(c2ncnc3[nH]ncc23)CC1 | active: 15.8 µM | –
14 | O=C(Nc1nnc(SCc2ccc(F)cc2)s1)C1Cc2ccccc2CN1C(=O)c1ccco1 (stereo not given) | inconclusive: 31.6 µM [inhibitor, single point] | –
15 | COc1ccc(NC(=O)C2C3C=CC4(O3)C2C(=O)N(CCN2CCCCC2)C4C(=O)NC2CCCC(C)C2C)cc1 (stereo not given) | – | inactive: -19.3%
16 | COc1ccc(C)cc1S(=O)(=O)NC1CCCCC1 | – | inactive: 14.2%
17 | O=C(Nc1ccc(Cl)cn1)c1ccc(Br)c(S(=O)(=O)N2CCCCC2)c1 | inconclusive: 11.2 µM [inhibitor, single point] | –
18 | Cc1cc(C(=O)OCc2nnc(-c3ccccc3)o2)c(C)n1-c1ccccc1 | active: 14.1 µM | –
19 | CCCc1ccc(Oc2cc(C)nc(N3CCOCC3)n2)cc1 | inconclusive: 31.6 µM [inhibitor, single point] | –
20 | CCN1C(=O)[C@@H]2[C@@H](c3ccc(-c4ccc(OC)cc4)cc3)N3CCCC[C@@]3(C(=O)OC)[C@@H]2C1=O | active: 3.16 µM | –
21 | CC(Nc1nc(=S)nc(Nc2ccc(F)cc2)[nH]1)c1ccccc1 (stereo not given) | – | inactive: -23.2%
22 | O=C(c1ccc(F)cc1)N1CCN(c2ccc([N+](=O)[O-])c(N3CCCCC3)c2)CC1 | inconclusive: 7.08 µM [inhibitor, partial curve] | –
23 | O=C(NC1CCCCC1)C(c1cccnc1)N(C(=O)CCl)c1cccc(Cl)c1 (stereo not given) | active: 0.891 µM | –
24 | CC12CC3CC(C)(C1)CC(C(=O)Nc1nncs1)(C3)C2 | – | inactive: 3.61%

Row | Compound | Potency | activity change, negative = inhibition
25 | Cc1noc(C)c1S(=O)(=O)Nc1ccc2c(c1)C(=O)N([C@H](C)CO)C[C@H](C)[C@@H](CN(C)C(=O)NC(C)C)O2 | inconclusive: 5.01 µM [inhibitor, single point] | –
26 | CCOC(=O)C1CCN(Cc2cccc(Oc3ccc(Cl)cc3)c2)CC1 | – | inactive: -5.92%
27 | O=C(Oc1cccc2cccnc12)c1cccc(N2C(=O)C3C4CCC(C4)C3C2=O)c1 (stereo not given) | inconclusive: 15.8 µM [inhibitor, single point] | –
28 | Cc1oc(-c2ccccc2F)nc1CS(=O)(=O)CC(=O)NCCCN1CCc2ccccc2C1 | inconclusive: 22.4 µM [inhibitor, single point] | –
29 | COc1ccc(/C=C(/NC(=O)c2ccc(C)cc2)c2nc3ccccc3[nH]2)cc1OC | inconclusive: 31.6 µM [inhibitor, single point] | –
30 | COc1cc(C2C(C(=O)c3cc4ccccc4o3)=C(O)C(=O)N2CCN2CCOCC2)ccc1OCCC(C)C (stereo not given) | inconclusive: 2.24 µM [inhibitor, single point] | –
31 | CC1=CC(C)(C)Nc2ccc(OC(=O)CN3C(=O)c4cccc5cccc(c45)C3=O)cc21 | inconclusive: 20 µM [inhibitor, single point] | –
32 | CCc1ccc(-c2nc(CN3CCC(C(=O)NCc4ccc(F)cc4)CC3)c(C)o2)cc1 | active: 17.8 µM | –
33 | Cn1nc(-c2ccc(OCC(=O)Nc3cccnc3)cc2)c2ccccc2c1=O | inactive and inconclusive: 31.6 µM [inhibitor, single point] | –
34 | Cc1cccc2nc(-c3ccccc3)nc(N3CCC(O)(c4ccc(Cl)cc4)CC3)c12 | inconclusive: 0.891 µM [inhibitor, full curve] | –
35 | CCc1ccc(OCC(=O)NNCC(=O)Nc2ccc(OC)cc2)cc1 | – | inactive: 0.627%
36 | O=C1CN=C(c2ccccc2)c2c(sc3c2CCCC3)N1 | inconclusive: 25.1 µM [inhibitor, single point] | –
37 | Oc1ccccc1CN1CCCN(Cc2ccccc2O)C1 | active: 8.91 µM | –
38 | Cc1oc2cc3oc(=O)c(CCC(=O)NCc4ccccn4)c(C)c3cc2c1C | inconclusive: 5.62 µM [inhibitor, single point] | –
39 | Cc1ccc(CNC(=O)CSc2ccsc2[N+](=O)[O-])cc1 | – | inactive: -3.04%
40 | CN(C)S(=O)(=O)c1cccc(NC(=S)NC(=O)C2CCCCC2)c1 | inconclusive: 31.6 µM [inhibitor, single point] | –
41 | CC(C)c1nc2oc3c(NCc4cccnc4)ncnc3c2c2c1CCC2 | active: 7.08 µM | –
42 | CCCCN1C(=O)Cc2c1nc(N)c1c(N)nc(N(CCC)CCC)c(C#N)c21 | active: 3.98 µM | –
43 | C=CCNC(=O)c1c(CSc2ccc(Cl)cc2)noc1C(=O)NCCC | inconclusive: 14.1 µM [inhibitor, single point] | –
44 | c1cc2c3c(cccc3c1)NC1(CCC3(CC1)Nc1cccc4cccc(c14)N3)N2 | inconclusive: 31.6 µM [inhibitor, single point] | –
45 | CCOC(=O)c1c(C)sc2c1N(C(=O)CCl)c1cc(Cl)ccc1S2 | inconclusive: 22.4 µM [inhibitor, single point] | –
46 | COc1ccc(OCCSc2ncc(CO)n2C)cc1 | – | inactive: 12.2%
47 | O=C(CSc1nc(CCC2CCCC2)nc2ccccc12)NCc1ccc2c(c1)OCO2 | inconclusive: 12.6 µM [inhibitor, partial curve] | –
48 | c1ccc(COc2ccc(OCCCCN3CCCCC3)cc2)cc1 | active: 25.1 µM | –

Row | Compound | Potency | activity change, negative = inhibition
49 | CN1CCN(C(=O)/C(=C/c2ccco2)NC(=O)c2ccccc2)CC1 | – | inactive: 13.6%
50 | C=C(C)Cn1cnc2c(oc3nc4c(cc32)CCCC4)c1=O | – | inactive: 0.987%
51 | O=C(Nc1cc(C(F)(F)F)cc(C(F)(F)F)c1)Nc1cnn(-c2ccc([N+](=O)[O-])cc2)c1C(F)(F)F | inconclusive: 3.55 µM [inhibitor, single point] | –
52 | C/C(=N\NC(=O)c1nn(C)cc1Br)c1ccc(NC(=O)c2ccncc2)cc1 | inconclusive: 14.1 µM [inhibitor, single point] | –
53 | CN(CCc1ccccn1)Cc1ccc(Cl)cc1 | – | inactive: 8.86%
54 | Clc1ccc2oc(-c3ccccn3)nc2c1 | – | inactive: 2.81%
55 | O=C(CCl)Nc1ccccc1C(=O)c1ccccc1 | inconclusive: 31.6 µM [inhibitor, single point] | –
56 | CCCNC(=O)c1ccc2c(c1)C1C3CCC(C3)C1C(c1ccccc1)N2 (stereo not given) | inconclusive: 15.8 µM [inhibitor, partial curve] | –
57 | Cc1cc(C(=O)CN2CCC(C)CC2)c(C)n1-c1ccc(F)cc1 | inconclusive: 31.6 µM [inhibitor, single point] | –
58 | CCN(CC)c1ccc(NC(=O)c2ccccc2F)cc1S(=O)(=O)Nc1ccccc1OC | inconclusive: 2.51 µM [inhibitor, full curve] | –
59 | CSc1nc2ccc(Cl)cc2[nH]1 | inconclusive: 8.91 µM [inhibitor, partial curve] | –
60 | COc1ccc(CSc2nnc(N)s2)cc1F | – | inactive: 7.09%
61 | O=C(NCc1ccco1)c1nn2c(C(F)(F)F)cc(-c3cccs3)nc2c1Cl | inconclusive: 0.562 µM [inhibitor, full curve] | –
62 | CN(C1CCCCC1)S(=O)(=O)c1ccc(SCC(=O)NC(C)(C)C)nc1 | inconclusive: 31.6 µM [inhibitor, single point] | –
63 | CC(C)COC(=O)N1CCN(S(=O)(=O)c2ccc3c(c2)CCC3)CC1 | – | inactive: -13.4%
64 | COc1cccc(-c2nnc(SCc3ccccn3)n2C)c1 | – | inactive: 1.35%
65 | CCOC(=O)CC1C(=O)NCCN1C(=O)Nc1ccc(Cl)cc1 (stereo not given) | – | inactive: 8.17%
66 | Cc1nnc(SCc2ccc(C(=O)c3ccc(Cl)cc3)o2)n1-c1ccccc1 | inconclusive: 35.5 µM [inhibitor, partial curve, poor fit] and inconclusive: 31.6 µM [inhibitor, single point] | –
67 | COc1ccc(NC(=O)Cc2ccc(Cl)cc2)cc1S(=O)(=O)N1CCCCC1 | active: 14.1 µM | –
68 | CC(CN1CCCC1)OC(=O)c1ccc(Cl)cc1 (stereo not given) | – | inactive: -8.54%
69 | COc1ccc2c(c1)OC[C@H]1[C@H]2N2C(=O)c3cc(OC)c(OC)cc3NC(=O)[C@@]2(C)[C@H]1c1ccccc1 | active: 7.08 µM | –
70 | C#CCOCCOCCOCCNc1nc(N2CCN(C(=O)[C@H](C(C)C)n3cc(CCO)nn3)CC2)nc(N2CCN(C(=O)[C@H](C)n3cc(CCCN=C(N)N)nn3)CC2)n1 | – | inactive: -6.35% [at 8.37 µM]
